# In the supplement of paper PMC8728848:
# Some of the results follow.
# Legend:
# Assay in all cases: glycan array binding signal (z-score within array); higher = stronger binding
# Details in all cases: glycan notation: IUPAC condensed, linker removed
# [1] = biological target: Gal(b1-4)Glc
# Method in brief: (§1)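 From the Consortium for Functional Glycomics database, 3228 arrays were curated, keeping only those whose protein sequence was available. Binding is given as a within-array Z-score averaged across arrays sharing a protein sequence and across linkers. Negative Z-scores can be read as non-binding.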
# [2] = biological target: Gal(b1-4)Glc6S
# Method in brief: as §1
# [3] = biological target: Gal(b1-4)GlcNAc
# Method in brief: as §1
# [4] = biological target: Gal(b1-4)GlcNAc(a1-6)Gal(b1-4)GlcNAc
# Method in brief: as §1
# [5] = biological target: Gal(b1-4)GlcNAc(b1-2)Man
# Method in brief: as §1
# [6] = biological target: Gal(b1-4)GlcNAc(b1-2)Man(a1-3)Man(b1-4)GlcNAc(b1-4)GlcNAc
# Method in brief: as §1
# [7] = biological target: Gal(b1-4)GlcNAc(b1-2)Man(a1-3)[Gal(b1-4)GlcNAc(b1-2)Man(a1-6)]Man(b1-4)GlcNAc(b1-4)GlcNAc
# Method in brief: as §1
# [8] = biological target: Gal(b1-4)GlcNAc(b1-2)Man(a1-3)[Gal(b1-4)GlcNAc(b1-2)Man(a1-6)]Man(b1-4)GlcNAc(b1-4)[Fuc(a1-6)]GlcNAc
# Method in brief: as §1
# [9] = biological target: Gal(b1-4)GlcNAc(b1-2)Man(a1-3)[Gal(b1-4)GlcNAc(b1-2)Man(a1-6)][Gal(b1-4)GlcNAc(b1-4)]Man(b1-4)GlcNAc(b1-4)[Fuc(a1-6)]GlcNAc
# Method in brief: as §1
# [10] = biological target: Gal(b1-4)GlcNAc(b1-2)Man(a1-3)[Gal(b1-4)GlcNAc(b1-2)Man(a1-6)][GlcNAc(b1-4)]Man(b1-4)GlcNAc(b1-4)[Fuc(a1-6)]GlcNAc
# Method in brief: as §1
# [11] = biological target: Gal(b1-4)GlcNAc(b1-2)Man(a1-3)[GlcNAc(b1-2)Man(a1-6)]Man(b1-4)GlcNAc(b1-4)GlcNAc
# Method in brief: as §1
# [12] = biological target: Gal(b1-4)GlcNAc(b1-2)Man(a1-3)[GlcNAc(b1-4)][Gal(b1-4)GlcNAc(b1-2)Man(a1-6)]Man(b1-4)GlcNAc(b1-4)GlcNAc
# Method in brief: as §1
# [13] = biological target: Gal(b1-4)GlcNAc(b1-2)Man(a1-3)[Man(a1-6)]Man(b1-4)GlcNAc(b1-4)GlcNAc
# Method in brief: as §1
# [14] = biological target: Gal(b1-4)GlcNAc(b1-2)Man(a1-6)Man(b1-4)GlcNAc(b1-4)GlcNAc
# Method in brief: as §1
# [15] = biological target: Gal(b1-4)GlcNAc(b1-2)Man(a1-6)[GlcNAc(b1-2)Man(a1-3)]Man(b1-4)GlcNAc(b1-4)GlcNAc
# Method in brief: as §1
# [16] = biological target: Gal(b1-4)GlcNAc(b1-2)Man(a1-6)[Man(a1-3)]Man(b1-4)GlcNAc(b1-4)GlcNAc
# Method in brief: as §1
# [17] = biological target: Gal(b1-4)GlcNAc(b1-2)[Gal(b1-4)GlcNAc(b1-4)]Man(a1-3)[Gal(b1-4)GlcNAc(b1-2)Man(a1-6)]Man(b1-4)GlcNAc(b1-4)GlcNAc
# Method in brief: as §1
# [18] = biological target: Gal(b1-4)GlcNAc(b1-2)[Gal(b1-4)GlcNAc(b1-4)]Man(a1-3)[Gal(b1-4)GlcNAc(b1-2)[Gal(b1-4)GlcNAc(b1-6)]Man(a1-6)]Man(b1-4)GlcNAc(b1-4)GlcNAc
# Method in brief: as §1
# [19] = biological target: Gal(b1-4)GlcNAc(b1-2)[Gal(b1-4)GlcNAc(b1-4)]Man(a1-3)[GlcNAc(b1-4)][Gal(b1-4)GlcNAc(b1-2)Man(a1-6)]Man(b1-4)GlcNAc(b1-4)GlcNAc
# Method in brief: as §1
# [20] = biological target: Gal(b1-4)GlcNAc(b1-2)[Gal(b1-4)GlcNAc(b1-4)]Man(a1-3)[GlcNAc(b1-4)][Gal(b1-4)GlcNAc(b1-2)[Gal(b1-4)GlcNAc(b1-6)]Man(a1-6)]Man(b1-4)GlcNAc(b1-4)GlcNAc
# Method in brief: as §1
# [21] = biological target: Gal(b1-4)GlcNAc(b1-2)[Gal(b1-4)GlcNAc(b1-6)]Man(a1-6)[Gal(b1-4)GlcNAc(b1-2)Man(a1-3)]Man(b1-4)GlcNAc(b1-4)GlcNAc
# Method in brief: as §1
# [22] = biological target: Gal(b1-4)GlcNAc(b1-2)[Gal(b1-4)GlcNAc(b1-6)]Man(a1-6)[Gal(b1-4)GlcNAc(b1-2)Man(a1-3)]Man(b1-4)GlcNAc(b1-4)[Fuc(a1-6)]GlcNAc
# Method in brief: as §1
# [23] = biological target: Gal(b1-4)GlcNAc(b1-2)[Gal(b1-4)GlcNAc(b1-6)]Man(a1-6)[GlcNAc(b1-4)][Gal(b1-4)GlcNAc(b1-2)Man(a1-3)]Man(b1-4)GlcNAc(b1-4)GlcNAc
# Method in brief: as §1
# [24] = biological target: Gal(b1-4)GlcNAc(b1-2)[Gal(b1-4)GlcNAc(b1-6)]Man(a1-6)[GlcNAc(b1-4)][Gal(b1-4)GlcNAc(b1-2)[Gal(b1-4)GlcNAc(b1-4)]Man(a1-3)]Man(b1-4)GlcNAc(b1-4)[Fuc(a1-6)]GlcNAc
# Method in brief: as §1
# [25] = biological target: Gal(b1-4)GlcNAc(b1-3)Gal(b1-3)GalNAc
# Method in brief: as §1
# [26] = biological target: Gal(b1-4)GlcNAc(b1-3)Gal(b1-3)GlcNAc
# Method in brief: as §1
# [27] = biological target: Gal(b1-4)GlcNAc(b1-3)Gal(b1-4)Glc
# Method in brief: as §1
# [28] = biological target: Gal(b1-4)GlcNAc(b1-3)Gal(b1-4)GlcNAc
# Method in brief: as §1
# [29] = biological target: Gal(b1-4)GlcNAc(b1-3)Gal(b1-4)GlcNAc(b1-2)Man(a1-3)[Gal(b1-4)GlcNAc(b1-3)Gal(b1-4)GlcNAc(b1-2)Man(a1-6)]Man(b1-4)GlcNAc(b1-4)GlcNAc
# Method in brief: as §1
# [30] = biological target: Gal(b1-4)GlcNAc(b1-3)Gal(b1-4)GlcNAc(b1-2)Man(a1-3)[Gal(b1-4)GlcNAc(b1-3)Gal(b1-4)GlcNAc(b1-2)Man(a1-6)]Man(b1-4)GlcNAc(b1-4)[Fuc(a1-6)]GlcNAc
# Method in brief: as §1
# [31] = biological target: Gal(b1-4)GlcNAc(b1-3)Gal(b1-4)GlcNAc(b1-2)[Gal(b1-4)GlcNAc(b1-3)Gal(b1-4)GlcNAc(b1-6)]Man(a1-6)[Gal(b1-4)GlcNAc(b1-3)Gal(b1-4)GlcNAc(b1-2)Man(a1-3)]Man(b1-4)GlcNAc(b1-4)GlcNAc
# Method in brief: as §1
# [32] = biological target: Gal(b1-4)GlcNAc(b1-3)Gal(b1-4)GlcNAc(b1-2)[Gal(b1-4)GlcNAc(b1-3)Gal(b1-4)GlcNAc(b1-6)]Man(a1-6)[Gal(b1-4)GlcNAc(b1-3)Gal(b1-4)GlcNAc(b1-2)Man(a1-3)]Man(b1-4)GlcNAc(b1-4)[Fuc(a1-6)]GlcNAc
# Method in brief: as §1
# [33] = biological target: Gal(b1-4)GlcNAc(b1-3)Gal(b1-4)GlcNAc(b1-3)Gal(b1-4)GlcNAc
# Method in brief: as §1
# [34] = biological target: Gal(b1-4)GlcNAc(b1-3)Gal(b1-4)GlcNAc(b1-3)Gal(b1-4)GlcNAc(b1-2)Man(a1-3)[Gal(b1-4)GlcNAc(b1-3)Gal(b1-4)GlcNAc(b1-3)Gal(b1-4)GlcNAc(b1-2)Man(a1-6)]Man(b1-4)GlcNAc(b1-4)GlcNAc
# Method in brief: as §1
# [35] = biological target: Gal(b1-4)GlcNAc(b1-3)Gal(b1-4)GlcNAc(b1-3)Gal(b1-4)GlcNAc(b1-2)Man(a1-3)[Gal(b1-4)GlcNAc(b1-3)Gal(b1-4)GlcNAc(b1-3)Gal(b1-4)GlcNAc(b1-2)Man(a1-6)]Man(b1-4)GlcNAc(b1-4)[Fuc(a1-6)]GlcNAc
# Method in brief: as §1
# [36] = biological target: Gal(b1-4)GlcNAc(b1-3)Gal(b1-4)GlcNAc(b1-3)Gal(b1-4)GlcNAc(b1-2)[Gal(b1-4)GlcNAc(b1-3)Gal(b1-4)GlcNAc(b1-3)Gal(b1-4)GlcNAc(b1-6)]Man(a1-6)[Gal(b1-4)GlcNAc(b1-3)Gal(b1-4)GlcNAc(b1-3)Gal(b1-4)GlcNAc(b1-2)Man(a1-3)]Man(b1-4)GlcNAc(b1-4)[Fuc(a1-6)]GlcNAc
# Method in brief: as §1
# [37] = biological target: Gal(b1-4)GlcNAc(b1-3)Gal(b1-4)GlcNAc(b1-3)Gal(b1-4)GlcNAc(b1-3)Gal(b1-4)GlcNAc(b1-2)Man(a1-3)[Gal(b1-4)GlcNAc(b1-3)Gal(b1-4)GlcNAc(b1-3)Gal(b1-4)GlcNAc(b1-3)Gal(b1-4)GlcNAc(b1-2)Man(a1-6)]Man(b1-4)GlcNAc(b1-4)GlcNAc
# Method in brief: as §1
binder,measurement,setting,value
GS13846A-bth-444-19-444 (Bacteroides thetaiotaomicron) (protein) SCENEFDVSDKADSLISVTVNTLNNQAAYNVGETAQAELWIQRGGLKDASGKVQFVVDPLLLDSLNQEDKTNYELLPENCYEMTNTEFTVDKNELCGYITYHPEKILALSAYNETKYVLPLRLISNDLAINPARNTSFLAFTILEPIVHISNAGVYNINPDLTSTMDIQIGVPFTNKWDILCNLTEDLSLIDEYNQINKVNFTLLPENAYTAPESVTLQEGVSQITASYQLKNNLVPGNYILPIKIGSITASQGGVPNNSLVIDEESNVLFCIVKEGNKINKSGWEVIECSSEHAGNEATYMIDDNESTYWHCKFKNEAGSSVPPFHFIIDMKKEITIAQIDLLNRGDGAANNIKWVEFYASNNNSEWDKIGAGDFNDEGTRATFRYYVKSTKARYLKLIIPEGYGNNCPPAAIRELTVYGLEGNN,glycan array binding signal (z-score),[1],-0.452
same,glycan array binding signal (z-score),[2],-0.184
same,glycan array binding signal (z-score),[3],-0.328
same,glycan array binding signal (z-score),[4],-0.193
same,glycan array binding signal (z-score),[5],-0.06
same,glycan array binding signal (z-score),[6],-0.063
same,glycan array binding signal (z-score),[7],0.043
same,glycan array binding signal (z-score),[8],0.221
same,glycan array binding signal (z-score),[9],-0.343
same,glycan array binding signal (z-score),[10],-0.411
same,glycan array binding signal (z-score),[11],-0.365
same,glycan array binding signal (z-score),[12],-0.238
same,glycan array binding signal (z-score),[13],-0.102
same,glycan array binding signal (z-score),[14],-0.133
same,glycan array binding signal (z-score),[15],-0.362
same,glycan array binding signal (z-score),[16],2.21
same,glycan array binding signal (z-score),[17],0.24
same,glycan array binding signal (z-score),[18],-0.414
same,glycan array binding signal (z-score),[19],0.158
same,glycan array binding signal (z-score),[20],-0.248
same,glycan array binding signal (z-score),[21],-0.304
same,glycan array binding signal (z-score),[22],-0.121
same,glycan array binding signal (z-score),[23],-0.105
same,glycan array binding signal (z-score),[24],-0.061
same,glycan array binding signal (z-score),[25],0.265
same,glycan array binding signal (z-score),[26],-0.335
same,glycan array binding signal (z-score),[27],-0.345
same,glycan array binding signal (z-score),[28],-0.407
same,glycan array binding signal (z-score),[29],-0.33
same,glycan array binding signal (z-score),[30],0.16
same,glycan array binding signal (z-score),[31],0.071
same,glycan array binding signal (z-score),[32],1.74
same,glycan array binding signal (z-score),[33],-0.124
same,glycan array binding signal (z-score),[34],0.954
same,glycan array binding signal (z-score),[35],0.103
same,glycan array binding signal (z-score),[36],-0.112
same,glycan array binding signal (z-score),[37],0.105
